This is one part of the list. Antibody binding of pooled human sera (four to six donors per pool; dilution not stated) to peptides of the Trypanosoma cruzi antigen TSSA on microarrays. Quantile-normalised fluorescence in arbitrary units, mean of duplicate arrays; higher = more binding. No active / inactive call. The uninfected pools are read here as the healthy donors of the same country. The strongest signals lie near the top of the scale (about 60,000).
Each sequence was assayed on pooled sera of uninfected people, Brazil (assay: antibody binding signal (normalised fluorescence) (arbitrary fluorescence units); higher = stronger serum antibody binding to peptide).
Procedure: (§1)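 Microarray of 15-residue peptides over residues 30-55 of Trypanosoma cruzi TSSAII, each with 1 to 10 substitutions at naturally variable positions, probed with one serum pool per country.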
Work on PSGKDKKTAAGETPS yielded an antibody binding signal of 126. DKKTATGGAPSPSGA showed an antibody binding signal of 108. TDKKAAAGGTPSQPG gave an antibody binding signal of 2230. GTDNKAATGETPSQS showed an antibody binding signal of 1310. Sequence KAATGGTPSQPGASS has an antibody binding signal of 205. EKKTAAGGAPSPSGA was tested, and the antibody binding signal was 141. Sequence KENKAATGEAPSQSG has an antibody binding signal of 101. Sequence PSGTEKKAATGEAPS has an antibody binding signal of 335. For NKTATGEAPSPSGAS, the antibody binding signal was 554. With SGTEKKAATGEAPSQ the antibody binding signal was 355. In the case of PSGKDNKAATGEAPS, the antibody binding signal is reported as 198. Work on PSGTDNKAAAGGAPS yielded an antibody binding signal of 1660. GTDNKTATGGAPSQS showed an antibody binding signal of 1960. PSGKEKKPATGETPS was tested, and the antibody binding signal was 126. TENKAAAGETPSQPG showed an antibody binding signal of 180. For GTENKPATGGTPSQP, the antibody binding signal was 792. TDKKAATGGTPSPSG gave an antibody binding signal of 693. NKTAAGEAPSQSGAS gave an antibody binding signal of 723. With TEKKTATGETPSPSG the antibody binding signal was 379. GTDNKTATGGTPSQP was tested, and the antibody binding signal was 1760. TPPSGKENKAAAGEA was tested, and the antibody binding signal was 374. GKENKTAAGGAPSQP showed an antibody binding signal of 127. With GTEKKAAAGGTPSQS the antibody binding signal was 2280. KDNKAAAGEAPSPSG gave an antibody binding signal of 133. DKKPAAGEAPSPPGA showed an antibody binding signal of 200. GKDNKTAAGETPSPP was tested, and the antibody binding signal was 136. In the case of PSGTDNKAAAGETPS, the antibody binding signal is reported as 1370. Work on EKKTAAGGAPSPPGA yielded an antibody binding signal of 137. Work on KDNKPATGEAPSQPG yielded an antibody binding signal of 383. In the case of SGTDKKAATGETPSQ, the antibody binding signal is reported as 326. Work on STPPSGTDNKPAAGG yielded an antibody binding signal of 977. With EKKPATGGAPSQPGA the antibody binding signal was 189. Work on TDKKAATGETPSQPG yielded an antibody binding signal of 263. For TPPSGKDNKTATGGT, the antibody binding signal was 396. In the case of NKPATGEAPSPSGAS, the antibody binding signal is reported as 963. TPPSGTDNKAATGEA showed an antibody binding signal of 450. Sequence TDNKAATGGTPSPSG has an antibody binding signal of 475. Sequence DKKPATGGTPSPSGA has an antibody binding signal of 854. TPPSGKDKKTAAGET gave an antibody binding signal of 128. DKKTAAGETPSPSGA gave an antibody binding signal of 134.

These sequences were tested on pooled sera of uninfected people, Mexico in the same assay as above.
Procedure: as §1
PSGKDKKTAAGETPS was tested, and the antibody binding signal was 106. For DKKTATGGAPSPSGA, the antibody binding signal was 398. In the case of TDKKAAAGGTPSQPG, the antibody binding signal is reported as 747. Sequence GTDNKAATGETPSQS has an antibody binding signal of 170. KAATGGTPSQPGASS showed an antibody binding signal of 336. For EKKTAAGGAPSPSGA, the antibody binding signal was 174. Work on KENKAATGEAPSQSG yielded an antibody binding signal of 142. Sequence PSGTEKKAATGEAPS has an antibody binding signal of 258. In the case of NKTATGEAPSPSGAS, the antibody binding signal is reported as 157. With SGTEKKAATGEAPSQ the antibody binding signal was 155. With PSGKDNKAATGEAPS the antibody binding signal was 100. Sequence PSGTDNKAAAGGAPS has an antibody binding signal of 287. For GTDNKTATGGAPSQS, the antibody binding signal was 368. PSGKEKKPATGETPS showed an antibody binding signal of 784. Work on TENKAAAGETPSQPG yielded an antibody binding signal of 113. Sequence GTENKPATGGTPSQP has an antibody binding signal of 584. In the case of TDKKAATGGTPSPSG, the antibody binding signal is reported as 119. In the case of NKTAAGEAPSQSGAS, the antibody binding signal is reported as 679. Sequence TEKKTATGETPSPSG has an antibody binding signal of 361. Work on GTDNKTATGGTPSQP yielded an antibody binding signal of 2250. TPPSGKENKAAAGEA showed an antibody binding signal of 223. Sequence GKENKTAAGGAPSQP has an antibody binding signal of 141. With GTEKKAAAGGTPSQS the antibody binding signal was 265. KDNKAAAGEAPSPSG was tested, and the antibody binding signal was 90.8. Work on DKKPAAGEAPSPPGA yielded an antibody binding signal of 96.6. In the case of GKDNKTAAGETPSPP, the antibody binding signal is reported as 158. PSGTDNKAAAGETPS was tested, and the antibody binding signal was 238. With EKKTAAGGAPSPPGA the antibody binding signal was 180. Sequence KDNKPATGEAPSQPG has an antibody binding signal of 318. Sequence SGTDKKAATGETPSQ has an antibody binding signal of 885. For STPPSGTDNKPAAGG, the antibody binding signal was 1680. Sequence EKKPATGGAPSQPGA has an antibody binding signal of 192. For TDKKAATGETPSQPG, the antibody binding signal was 273. Work on TPPSGKDNKTATGGT yielded an antibody binding signal of 90.1. Work on NKPATGEAPSPSGAS yielded an antibody binding signal of 250. With TPPSGTDNKAATGEA the antibody binding signal was 167. Work on TDNKAATGGTPSPSG yielded an antibody binding signal of 148. In the case of DKKPATGGTPSPSGA, the antibody binding signal is reported as 132. Work on TPPSGKDKKTAAGET yielded an antibody binding signal of 138. DKKTAAGETPSPSGA gave an antibody binding signal of 497.

What follows are sequences tested on pooled sera of uninfected people, USA in the same assay as above.
Procedure: as §1
Work on PSGKDKKTAAGETPS yielded an antibody binding signal of 119. Work on DKKTATGGAPSPSGA yielded an antibody binding signal of 180. Sequence TDKKAAAGGTPSQPG has an antibody binding signal of 166. In the case of GTDNKAATGETPSQS, the antibody binding signal is reported as 78.6. KAATGGTPSQPGASS showed an antibody binding signal of 126. EKKTAAGGAPSPSGA was tested, and the antibody binding signal was 561. With KENKAATGEAPSQSG the antibody binding signal was 181. Work on PSGTEKKAATGEAPS yielded an antibody binding signal of 400. NKTATGEAPSPSGAS showed an antibody binding signal of 956. For SGTEKKAATGEAPSQ, the antibody binding signal was 175. Sequence PSGKDNKAATGEAPS has an antibody binding signal of 127. With PSGTDNKAAAGGAPS the antibody binding signal was 300. For GTDNKTATGGAPSQS, the antibody binding signal was 178. PSGKEKKPATGETPS showed an antibody binding signal of 258. For TENKAAAGETPSQPG, the antibody binding signal was 166. GTENKPATGGTPSQP showed an antibody binding signal of 187. With TDKKAATGGTPSPSG the antibody binding signal was 176. NKTAAGEAPSQSGAS was tested, and the antibody binding signal was 868. In the case of TEKKTATGETPSPSG, the antibody binding signal is reported as 2480. Work on GTDNKTATGGTPSQP yielded an antibody binding signal of 147. For TPPSGKENKAAAGEA, the antibody binding signal was 269. In the case of GKENKTAAGGAPSQP, the antibody binding signal is reported as 136. GTEKKAAAGGTPSQS gave an antibody binding signal of 145. KDNKAAAGEAPSPSG showed an antibody binding signal of 101. With DKKPAAGEAPSPPGA the antibody binding signal was 107. Sequence GKDNKTAAGETPSPP has an antibody binding signal of 349. Sequence PSGTDNKAAAGETPS has an antibody binding signal of 157. In the case of EKKTAAGGAPSPPGA, the antibody binding signal is reported as 671. Work on KDNKPATGEAPSQPG yielded an antibody binding signal of 138. For SGTDKKAATGETPSQ, the antibody binding signal was 203. STPPSGTDNKPAAGG was tested, and the antibody binding signal was 763. In the case of EKKPATGGAPSQPGA, the antibody binding signal is reported as 697. With TDKKAATGETPSQPG the antibody binding signal was 239. TPPSGKDNKTATGGT was tested, and the antibody binding signal was 179. In the case of NKPATGEAPSPSGAS, the antibody binding signal is reported as 1010. For TPPSGTDNKAATGEA, the antibody binding signal was 149. TDNKAATGGTPSPSG showed an antibody binding signal of 122. For DKKPATGGTPSPSGA, the antibody binding signal was 160. For TPPSGKDKKTAAGET, the antibody binding signal was 140. DKKTAAGETPSPSGA showed an antibody binding signal of 396.

From the supplement of paper PMC10441789
